According to PubChem BioAssay AID662 (National Center for Advancing Translational Sciences (NCATS), 2007):
Screen size: about 71,000 compounds; about 1,800 (2.5%) were called active. The shares of active, inactive and inconclusive entries below differ from those in the screen. The call rests on the fitted dose curve; in most records, active means well fitted activation curve with a large enough effect in the signal ratio, with a control signal flat (not every such curve was filed as active); inconclusive means small, poorly fitted or top-dose-only effect, or effect the other way, or a change in a side signal; inactive means flat fitted curve, though single readings scatter; the % refers to the signal ratio. A potency beside an inconclusive call is a rough fit, not a confirmed value.

Assay: Cell signaling CRE-BLA (Fsk stim); on activity change, negative = inhibition: % of control where 0% means no effect
Settings: CHO CRE-bla reporter (cAMP response element driving beta-lactamase), forskolin EC10, beta-lactamase ratio; activity change, negative = inhibition: at 38.2 µM (top of the series) unless noted
Method in brief: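 Using CellSensor CRE-bla CHO cells in Opti-MEM with 0.5% dialyzed FBS, compounds were titrated with EC10 NKH 477 for 3 h at 37 °C. CCF4 ratio (460/530 nm) gave %Activity; AC50 derived.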
Potency means the concentration at half of the fitted maximal effect; tags describe the fitted curve by direction and shape.

Row | Compound | Potency | activity change, negative = inhibition
1 | O=c1c(-c2cc(F)cc(F)c2)nc2cnc(N3CCOCC3)nc2n1C[C@H]1CCCO1 | inconclusive: 3.98 µM [rising, partial curve] | 
2 | N#C/C(=C\c1ccc(O)c(O)c1)C(=O)NCc1ccccc1 |  | inconclusive: 16.2%
3 | O=C(O)C1Nc2c(C(=O)N3CCOCC3)cccc2C2C=CCC12 (stereo not given) |  | inactive
4 | O=C(COc1ccccc1)n1nc(-c2ccc(Cl)cc2)nc1NCc1ccco1 |  | inconclusive: 24.2%
5 | Cc1c(NC(=O)C2(C)CCCCC2)c(=O)n(-c2ccccc2)n1C |  | inactive
6 | O=C(Nc1ccc2c(c1)oc1ccccc12)N1CCOCC1 |  | inactive
7 | CCN1C(=O)/C(=C2/C=CC=CN2C)OC1=S |  | inconclusive: 16.1% [at 7.6 µM]
8 | O=C(NCC(c1cccnc1)N1CCN(c2ccccc2F)CC1)c1ccccc1 (stereo not given) | inconclusive: 10 µM [rising, partial curve] | 
9 | Cc1ccc(S(=O)(=O)N2CCCC2C(=O)NCc2ccco2)cc1 (stereo not given) | inconclusive: 1 µM [falling, single point] | 
10 | COCCn1c(=O)c(C)nc2cnc(Oc3ccccc3)nc21 | inconclusive: 12.6 µM [rising, partial curve] | 
11 | CC(=O)[C@@]1(N=Nc2ccc(S(N)(=O)=O)cc2)CCOC1=O |  | inactive: 1.87% [at 7.6 µM]
12 | COc1ncc2nc(-c3ccc(Cl)cc3)c(=O)n(C[C@H]3CCCO3)c2n1 | inconclusive: 12.6 µM [rising, partial curve] | 
13 | O=C(CSc1ccc2nnc(-c3ccccn3)n2n1)N1CCOCC1 |  | inactive
14 | COc1cccc(-c2cc(NCc3cccs3)ncn2)c1 | inconclusive: 10 µM [rising, single point] | 
15 | COC(=O)c1ccccc1NS(=O)(=O)c1ccc2c3c(cccc13)C(=O)N2 | inconclusive: 10 µM [rising, partial curve] | 
16 | COc1cc2c(cc1OC)C(COc1ccc(F)cc1)N(C(=O)c1ccco1)CC2 (stereo not given) | active: 10 µM | 
17 | CCS(=O)(=O)Nc1c(C(=O)OC)[nH]c2ccccc12 |  | inactive
18 | C=CCCC |  | inactive
19 | C=C(C)CSc1nnc(-c2cc(OC)c(OC)c(OC)c2)n1N | inconclusive: 10 µM [rising, partial curve] | 
20 | O=C(CSc1n[nH]c(-c2ccco2)n1)Nc1sc2c(c1C(=O)Nc1ccccc1)CCCC2 | inconclusive: 7.94 µM [rising, partial curve] | 
21 | O=C(O)c1ccccc1S(=O)(=O)NCC(O)COc1ccc(Br)cc1 (stereo not given) |  | inconclusive: -7.12% [at 7.6 µM]
22 | O=C(OCc1nnc(-c2ccccc2)o1)c1cc(S(=O)(=O)N2CCOCC2)c(Cl)cc1Cl | inconclusive: 3.16 µM [falling, single point] | 
23 | COC(=O)c1c(C#N)c(N)nc2c1CCC2 | active: 2 µM | 
24 | C=Cc1ccccc1Cl |  | inactive
25 | CCOC(=O)c1oc2ccc(Br)cc2c1CSc1nnc(C)s1 | inconclusive: 25.1 µM [falling, single point] | 
26 | O=C(COc1ccccc1F)NC1CC1 | inconclusive: 5.01 µM [rising, single point] | 
27 | Cc1nc2c(C(=O)N3CCN(c4ccccn4)CC3)cnn2c(C)c1Cc1cccc(Cl)c1 |  | inconclusive: 10.6%

Row | Compound | Potency | activity change, negative = inhibition
28 | C=CCn1c(SCC(=O)Nc2cc(C)c(Cl)cc2OC)nnc1-c1ccco1 | inconclusive: 10 µM [rising, partial curve] | 
29 | Cc1ccc(C)c(-n2c(SCC(=O)N3CCCC3)nnc2-c2ccccn2)c1 | inconclusive: 12.6 µM [rising, single point] | 
30 | Cc1ccccc1-c1nc(CN2CCC(C(=O)NCCCN3CCCC3)CC2)c(C)o1 |  | inconclusive: -0.772%
31 | FC(F)(F)c1cc(-c2ccccc2)nc(N2CCCCCC2)n1 |  | inactive
32 | O=c1c(-c2ccc(Cl)cc2)nc2cnc(N3CCNCC3)nc2n1Cc1cccs1 | inconclusive: 0.794 µM [rising, partial curve] | 
33 | O=C(OCCN1C(=O)c2ccccc2C1=O)c1cc(S(=O)(=O)N2CCOCC2)ccc1F | inconclusive: 25.1 µM [rising, single point] | 
34 | CSC1=N/C(=C\c2ccc(C)o2)C(=O)S1 |  | inactive
35 | O=C(c1ccccc1)c1ccc2n1CC[C@H]2C(=O)O |  | inactive
36 | COc1ccc(C2C(C#N)=C(N)N3C(=C2C#N)Sc2ccccc23)cc1 (stereo not given) |  | inactive
37 | CCOC(=O)c1c(-c2ccc(C)o2)csc1NC(=O)CSc1nncs1 | inconclusive: 10 µM [rising, partial curve] | 
38 | CC(C)c1ccc(OCC(O)CN2CCN(c3ccccc3)CC2)cc1 (stereo not given) |  | inconclusive: -25.7%
39 | CCOC(=O)N1CCC(NC(=O)C2CCN(S(=O)(=O)N3CCC(C)CC3)CC2)CC1 |  | inactive
40 | CC(c1ccccc1F)n1cc(C(=O)NCCc2ccco2)nn1 (stereo not given) |  | inactive
41 | CCN(CC)CCCNc1oc(-c2ccc(OC)c(OC)c2)nc1C#N |  | inactive
42 | COc1ccc(C2C(C(N)=O)=C(C)Nc3ncnn32)cc1 (stereo not given) |  | inconclusive: -13.3%
43 | O=C1CS/C(=N\C(=O)N2c3ccccc3Sc3ccccc32)N1 | inconclusive: 1.58 µM [falling, single point] | 
44 | CCOC(=O)CC(=O)CSc1nc2sc(C)cc2c(=O)n1Cc1ccco1 | inconclusive: 10 µM [rising, partial curve] | 
45 | Cc1ccccc1Nc1nn2c(=O)c3ccccc3nc2s1 |  | inconclusive: 3.22%
46 | NC(=O)C1(N2CCCCC2)CCN(CC(=O)Nc2ccccc2-c2ccccc2)CC1 |  | inconclusive: 5.71%
47 | CS(=O)(=O)N(CC(=O)NCc1ccccn1)c1ccc2c(c1)OCCO2 |  | inactive
48 | Cc1cc(C)c(S(=O)(=O)Nc2cccc(C(F)(F)F)c2)c(C)c1 | inconclusive: 1.58 µM [falling, full curve, poor fit] | 
49 | Cn1c(-c2ccc3c(c2)OCO3)cnc1NCc1cccc(Cl)c1 |  | inconclusive: -29.3%
50 | Cc1cccc2cc(C#N)c(N3CCCC3)nc12 | inconclusive: 12.6 µM [rising, single point] | 
51 | CCc1nc2sc3c(c2c(=O)n1N)CCC3 |  | inconclusive: 26.1%
52 | CCOC(=O)c1c(NC(=O)c2ccoc2C)sc2c1CCC2 | inconclusive: 10 µM [rising, single point] | 
53 | COc1ccc2[nH]cc(CCNc3cc(-c4ccccc4Cl)ncn3)c2c1 |  | inactive
54 | ON(CCc1ccncc1)Cc1ccccc1 |  | inactive: 14% [at 7.6 µM]

Row | Compound | Potency | activity change, negative = inhibition
55 | CCOCCCNC(=O)C1CCN(c2cc(C)nc3c(-c4ccc(OC)c(OC)c4)c(C)nn23)CC1 | inconclusive: 7.94 µM [rising, partial curve] | 
56 | CCOc1ccc(N2C(=O)CC(SCCN)C2=O)cc1 (stereo not given) |  | inactive
57 | O=C(NCC1CC1)[C@@H]1C[C@H]1[C@@H](NP(=O)(c1ccccc1)c1ccccc1)c1ccccc1 |  | inactive
58 | Cc1cc(NCCN2CCOCC2)n2nc(C)c(-c3ccc(Cl)cc3)c2n1 | active: 1.26 µM | 
59 | CCN1CCN(C(=O)c2cc3c(-c4ccc(Cl)cc4)nn(C)c3s2)CC1 | inconclusive: 10 µM [rising, partial curve] | 
60 | N#Cc1cccc(-c2ccc3ncnc(N4CCNCC4)c3c2)c1 |  | inactive
61 | Cc1ccc(-n2nc(C(=O)N3CCN(C)CC3)c3c4ccccc4n(C)c3c2=O)cc1 |  | inconclusive: -30.9%
62 | COCCCN1C(=O)C(O)=C(C(=O)c2ccco2)C1c1cccc(Br)c1 (stereo not given) |  | inconclusive: -4.67% [at 7.6 µM]
63 | Cn1cccc1C(=O)N1CCC2(CC1)CN(Cc1cc(C(F)(F)F)cc(C(F)(F)F)c1)C2 |  | inactive
64 | Cc1cc(N2CCN(c3nc4ccccc4s3)CC2)n2ncnc2n1 | inconclusive: 6.31 µM [rising, single point] | 
65 | COc1ccccc1N1CCN(CC(O)COc2ccc(S(=O)(=O)N3CCOCC3)cc2)CC1 (stereo not given) | inconclusive: 3.16 µM [falling, single point] | 
66 | Cn1c(=O)c2c(nc(CN3CCC(C(N)=O)CC3)n2CCCc2ccccc2)n(C)c1=O |  | inconclusive: 12.4%
67 | O=C1CC(C(=O)Nc2ccccc2)C2(CCCC2)O1 (stereo not given) |  | inconclusive: -23.6%
68 | S=c1nc(C2CCCCC2)[nH][nH]1 |  | inactive
69 | CCOc1ccccc1NC=C1C(=O)OC(C)(C)OC1=O | inconclusive: 10 µM [rising, single point] | 
70 | CCCCOCCCNS(=O)(=O)Cc1ccccc1 |  | inconclusive: -11.9% [at 7.6 µM]
71 | O[C@H]([C@H](O)[C@@H](O)c1nc2ccccc2[nH]1)[C@@H](O)c1nc2ccccc2[nH]1 |  | inactive: 1.4% [at 7.6 µM]
72 | CCc1nc(N)c(C#N)c(-c2ccccc2OC)c1C | inconclusive: 12.6 µM [rising, single point] | 
73 | Cc1cccc(N2C(N)=NC(N)=NC23CCCCC3)c1 |  | inconclusive: -7.45%
74 | O=C(CC1Sc2ccccc2NC1=O)OCC(=O)N1CCc2ccccc21 (stereo not given) | inconclusive: 3.98 µM [falling, partial curve] | 
75 | CNc1nc(C)nc(-n2nc(C)cc2C)n1 | inconclusive: 15.8 µM [rising, partial curve] | 
76 | Cn1c(=O)c2ncn(CC(=O)Nc3ccc4oc(-c5cccc6ccccc56)nc4c3)c2n(C)c1=O |  | inactive
77 | CCOc1cc(C2CC(=O)NC3=C2C(=O)C(C(=O)OC)C(C)C3)cc(Cl)c1O (stereo not given) | inconclusive: 7.94 µM [rising, partial curve] | 
78 | C=CCn1c(N2CCCCCC2)nc2c1c(=O)n(C)c(=O)n2C | inconclusive: 12.6 µM [rising, single point] | 
79 | Fc1ccc(Br)cc1C1C=C(c2cccnc2)Nc2ncnn21 (stereo not given) |  | inconclusive: -4.33%
80 | COC(=O)CCC(=O)Nc1ccc(OC)cc1 |  | inconclusive: 3.6% [at 7.6 µM]
